# From PubChem BioAssay AID504332 (National Center for Advancing Translational Sciences (NCATS), 2011)
# In all, about 350,000 compounds went through this assay and about 31,000 (8.9%) were called active. The shares of active, inactive and inconclusive entries below differ from those in the screen. Calls follow the shape of the dose curve; as a rule, active = well fitted inhibition curve with a large enough effect; inconclusive = small, poorly fitted or top-dose-only effect; inactive = no such curve, though single readings can be large or run the other way. Where the call is inconclusive, the potency comes from a doubtful curve fit.
# Target: Histone-lysine N-methyltransferase EHMT2 (Homo sapiens) (UniProt Q96KQ7)
# Test: qHTS Assay for Inhibitors of Histone Lysine Methyltransferase G9a; also: nearly all actives have a fitted effect of over 75% in size
# Details: G9a H3K9 monomethylation, AlphaScreen, 2 h; activity, negative = inhibition: at 59 µM (top of the series) unless noted
# Outline: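 AlphaScreen read-out: biotin-H3K9 peptide (500 nM) methylation by 20 nM enzyme with 20 uM SAM, 2 h at room temperature after 15 min compound preincubation; anti-monomethyl H3K9 antibody plus donor/acceptor beads, 10 min dark.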
# % is scaled to controls: 0 for no effect and ±100 for the full control effect; potency is read from the fitted curve at half-maximal effect; tags tell the direction and shape of the fitted curve.
# UniProt Q96KQ7, sequence (Q96KQ7 whole entry, looked up): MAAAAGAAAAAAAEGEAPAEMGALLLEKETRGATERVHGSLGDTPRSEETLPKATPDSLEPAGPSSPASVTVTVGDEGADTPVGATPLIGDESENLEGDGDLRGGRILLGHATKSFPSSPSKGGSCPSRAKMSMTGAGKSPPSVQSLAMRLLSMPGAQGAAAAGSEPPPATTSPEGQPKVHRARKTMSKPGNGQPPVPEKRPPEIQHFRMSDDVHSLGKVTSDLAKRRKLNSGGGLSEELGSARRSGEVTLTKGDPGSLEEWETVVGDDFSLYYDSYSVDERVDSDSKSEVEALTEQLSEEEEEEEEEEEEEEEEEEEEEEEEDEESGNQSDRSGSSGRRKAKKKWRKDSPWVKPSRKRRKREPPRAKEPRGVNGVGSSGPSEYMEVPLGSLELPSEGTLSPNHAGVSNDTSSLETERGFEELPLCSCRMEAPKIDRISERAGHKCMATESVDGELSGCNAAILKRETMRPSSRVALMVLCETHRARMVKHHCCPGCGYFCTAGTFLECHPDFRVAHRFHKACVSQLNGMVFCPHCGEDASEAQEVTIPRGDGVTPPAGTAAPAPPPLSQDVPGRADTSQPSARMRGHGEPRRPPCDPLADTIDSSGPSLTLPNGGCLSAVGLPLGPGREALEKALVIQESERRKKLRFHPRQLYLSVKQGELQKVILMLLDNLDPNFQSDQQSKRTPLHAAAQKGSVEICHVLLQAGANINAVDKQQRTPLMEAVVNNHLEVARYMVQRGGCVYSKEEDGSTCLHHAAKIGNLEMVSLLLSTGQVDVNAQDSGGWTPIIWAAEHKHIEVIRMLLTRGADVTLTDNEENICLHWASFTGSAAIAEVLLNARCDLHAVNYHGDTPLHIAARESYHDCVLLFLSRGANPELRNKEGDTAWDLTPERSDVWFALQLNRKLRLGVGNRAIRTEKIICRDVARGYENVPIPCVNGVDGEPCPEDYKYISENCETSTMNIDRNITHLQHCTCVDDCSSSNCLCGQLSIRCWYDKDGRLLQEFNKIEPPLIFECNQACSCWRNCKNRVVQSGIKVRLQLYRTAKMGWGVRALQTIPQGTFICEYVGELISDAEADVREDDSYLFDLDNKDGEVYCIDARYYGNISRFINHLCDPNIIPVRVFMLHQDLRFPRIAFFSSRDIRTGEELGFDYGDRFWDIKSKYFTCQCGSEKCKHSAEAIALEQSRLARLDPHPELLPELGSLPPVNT
Structure (SMILES),Potency,"activity, negative = inhibition"
O=c1oc2c(CN3CCOCC3)c(O)c(Cl)cc2c2c1CCCC2,active: 79.4 µM,
CN(C)c1ccc(C2CNC(c3ccc(Cl)c([N+](=O)[O-])c3)c3[nH]c4ccccc4c32)cc1 (stereo unspecified),"inconclusive: 3.16 µM [inhibitor, single point]",
CC(=NCCCn1ccnc1)C1=C(O)c2ccccc2C1=O,inactive,
CCCOC(=O)c1ccc(NC(=O)c2ccoc2C)cc1,"inconclusive: 12.6 µM [inhibitor, partial curve, poor fit]",
COc1ccc(CCn2c(=O)c3cccnc3n(Cc3ccc([N+](=O)[O-])cc3)c2=O)cc1OC,"inconclusive: 10 µM [inhibitor, partial curve, poor fit]",
Fc1ccccc1-n1cn[nH]c1=S,active: 10 µM,
CSc1cccc(NC(=O)C2CCN(S(=O)(=O)c3ccc4[nH]c(=O)ccc4c3)CC2)c1,inactive,
CC(C)c1ccc(S(=O)(=O)Nc2ccc(O)c(Sc3nc4ccccc4s3)c2)cc1,"inconclusive: 7.08 µM [inhibitor, partial curve]",
O=C1C(Cl)=C(N2CCN(c3ccccc3[N+](=O)[O-])CC2)C(=O)c2ccccc21,active: 7.94 µM,
CCCC(O)(c1ccc(OC)cc1)C(CN1CCOCC1)c1ccc(Cl)cc1 (stereo unspecified),"inconclusive: 89.1 µM [inhibitor, single point]",
Cc1ccc(N(CC(=O)Nc2cccc(N(C)S(C)(=O)=O)c2)S(C)(=O)=O)cc1,"inconclusive: 20 µM [inhibitor, single point]",
CCC(C)(C)NC(=O)C(c1ccncc1)N(C(=O)Cn1nnc2ccccc21)c1cc2c(cc1C(C)=O)OCO2 (stereo unspecified),"inconclusive: 89.1 µM [inhibitor, single point]",
CCc1ccc(OC)c(S(=O)(=O)NCc2cccs2)c1,,inactive: 0.818% [at 12.7 µM]
O=C(Nc1ccc2nn(-c3ccc(F)cc3)nc2c1)c1cccc2c(Cl)cccc12,inactive,
Cc1ccc(C2=[N+]([O-])C3(CCCCC/C3=N\NC(N)=S)N(O)C2(C)C)o1 (stereo unspecified),"inconclusive: 89.1 µM [inhibitor, single point]",
Fc1ccc(Nc2nc(-c3cccnc3)cs2)cc1,inactive,
COCCNc1cc(N2CCN(C3CCCCC3)CC2)c2noc3c2c1C(=O)c1ccccc1-3,"inconclusive: 31.6 µM [inhibitor, single point]",
CC1(C)CC(=O)C2=C(C1)N(Cc1ccco1)C(=O)C2(NC(=O)C1CCCCC1)C(F)(F)F (stereo unspecified),,inactive: -42.8% [at 12.7 µM]
S=C1SCN(CCN2CCOCC2)CN1Cc1ccccc1,"inconclusive: 70.8 µM [inhibitor, single point]",
Cc1cc(Br)ccc1NC(=O)CNC(=O)CN1C(=O)NC2(CCCCCC2)C1=O,inactive,
CCOc1ccc(NC(=O)CSc2nccn(-c3ccc4c(c3)OCCO4)c2=O)cc1,"inconclusive: 50.1 µM [inhibitor, partial curve]",
COc1ccc(CC(=O)NNC(=O)CCc2ccccc2)cc1OC,"inconclusive: 4.47 µM [inhibitor, single point]",

Structure (SMILES),Potency,"activity, negative = inhibition"
Cc1cccc(C)c1NC(=O)CN(C)C(=O)COc1cccc2c1OC(C)(C)C2,"inconclusive: 56.2 µM [inhibitor, partial curve, poor fit]",
CCOc1ccc(N2C(=O)CC(N3CCN(C(=O)CN4CCCC4)CC3)C2=O)cc1 (stereo unspecified),"inconclusive: 39.8 µM [inhibitor, single point]",
O=C(CCc1nnc(CCCCc2ccccc2)o1)NCCN1CCCCC1=O,"inconclusive: 79.4 µM [inhibitor, single point]",
COc1cccc(CN2CCN(CCCc3ccccc3)C(CCO)C2)c1O (stereo unspecified),inactive,
CCOc1ccccc1C1C(C(=O)Nc2ccc(OC)cc2)=C(C)Nc2nc(CCCO)nn21 (stereo unspecified),"inconclusive: 39.8 µM [inhibitor, single point]",
CCOc1ccccc1NC(=O)c1c(NCc2ccc(OC)c(OC)c2OC)sc2c1CCC(C)C2 (stereo unspecified),"inconclusive: 3.16 µM [inhibitor, partial curve, poor fit]",
O=c1cccc2n1Cc1cc3ccccc3nc1-2,active: 44.7 µM,
COc1cccc(C2CC(=O)Nc3cc4c(cc32)CCC4)c1 (stereo unspecified),"inconclusive: 25.1 µM [inhibitor, partial curve, poor fit]",
O=C(CSc1n[nH]c(-c2ccccc2)n1)c1ccc(O)c(O)c1,active: 7.94 µM,
O=C(c1ccc2c(c1)OCCO2)C1CCN(S(=O)(=O)c2ccc(F)cc2)CC1,"inconclusive: 1.26 µM [inhibitor, single point]",
COc1ccc(C2=NN(C(=O)CSc3nnc(-c4ccccc4F)o3)C(c3ccco3)C2)cc1 (stereo unspecified),active: 44.7 µM,
COc1ccc(C2(c3ccc(OC)cc3)NC(=O)N(CC(=O)N3CCOCC3)C2=O)cc1,,inactive: -3.62% [at 12.7 µM]
O=S(=O)(c1cccs1)N1CN(Cc2ccco2)c2nc3ccccc3nc21,active: 39.8 µM,
Nc1nc(Nc2cccc(Cl)c2)nc(NCCO)c1[N+](=O)[O-],"inconclusive: 3.16 µM [inhibitor, full curve, poor fit]",
C=CCc1c(C)nc(C)nc1N/N=C/c1ccc([N+](=O)[O-])cc1,"inconclusive: 79.4 µM [inhibitor, single point]",
Cc1cccnc1NC(=O)c1csnn1,"inconclusive: 0.708 µM [inhibitor, partial curve, poor fit]",
CCn1c(=O)n(CC)c2cc(N3CCCC3)c(NC(=O)c3c(F)cccc3F)cc21,"inconclusive: 89.1 µM [inhibitor, single point]",
CC(C)(C)c1ccc(Cn2nnc3c(=O)[nH]c(C4CCCN(C(=O)c5ccco5)C4)nc32)cc1 (stereo unspecified),"inconclusive: 56.2 µM [inhibitor, single point]",
COc1ccc2c(CC(=O)N(C)CC3COc4ccccc4O3)coc2c1 (stereo unspecified),"inconclusive: 0.251 µM [inhibitor, full curve, poor fit]",
CCC1(C)N=C(c2ccc3c(c2)OCO3)CC(c2ccccc2O)N1 (stereo unspecified),"inconclusive: 3.16 µM [inhibitor, single point]",
COc1ccc(NC(=O)CN2C(=O)c3cccc4cccc2c34)cc1OC,"inconclusive: 35.5 µM [inhibitor, single point]",
O=c1c2ccc([N+](=O)[O-])cc2ncn1CCOc1ccc(Cl)cc1,,inconclusive: -78.8% [inhibitor]

Structure (SMILES),Potency,"activity, negative = inhibition"
COc1ccc(-c2cc(C(=O)N(C)Cc3ccccc3)c3ccccc3n2)cc1,inactive,
Nc1cccc2c1C(=O)N(C(=O)c1ccc(S(=O)(=O)N3CCCCCC3)cc1)C2=O,"inconclusive: 89.1 µM [inhibitor, single point]",
CC(C)(C)NC(=O)CN(C(=O)CCC(=O)Nc1nccs1)c1cccc(C(F)(F)F)c1,,inactive: 6.69% [at 0.501 µM]
Cc1cc(C)c(-n2c(SCCS(=O)(=O)c3ccc(F)cc3)n[nH]c2=O)c(C)c1,"inconclusive: 79.4 µM [inhibitor, partial curve, poor fit]",
O=C(Nc1ccccc1)OC[C@H](CN1CCCCC1)OC(=O)Nc1ccccc1,inactive,
Cc1ccc(Cl)cc1-n1c(=O)cc(N2CCN(c3ccccc3)CC2)[nH]c1=O,inactive,
C(=N\Nc1nc(Nc2ccccc2)nc(Nc2ccccc2)n1)/c1cccnc1,inactive,
CCCCN(CCCC)CC(O)COc1ccccc1C(=O)Nc1ccccc1 (stereo unspecified),"inconclusive: 3.98 µM [inhibitor, partial curve, poor fit]",
Cc1oc(C(=O)O)cc1COc1cccc2ccccc12,"inconclusive: 89.1 µM [inhibitor, single point]",
COc1ccc(CN2CCSCC2)cc1C,active: 10 µM,
N/C(=N/OC(=O)c1cccc([N+](=O)[O-])c1)c1cccc([N+](=O)[O-])c1,"inconclusive: 12.6 µM [inhibitor, partial curve, poor fit]",
COCCn1c(SCC(=O)Nc2ccc(Cl)c(S(=O)(=O)N(C)C)c2)nc2ccccc21,"inconclusive: 31.6 µM [inhibitor, partial curve, poor fit]",
COc1ccc(OCc2nnc(SCC(=O)O)n2N)cc1,"inconclusive: 44.7 µM [inhibitor, partial curve, poor fit]",
N#CC1=C(N)Oc2n[nH]c(-c3ccncc3)c2C1c1ccsc1 (stereo unspecified),"inconclusive: 10 µM [inhibitor, partial curve, poor fit]",
CCc1cc2c(=O)nc3n(c2s1)Cc1ccccc1/C3=C(/O)c1ccc(F)cc1,"inconclusive: 8.91 µM [inhibitor, full curve, poor fit]",
CC(NC(=O)Nc1ccccc1O)(C(F)(F)F)C(F)(F)F,inactive,
c1ccc(N2CCN(C3CCSC3)CC2)cc1 (stereo unspecified),"inconclusive: 0.316 µM [inhibitor, full curve, poor fit]",
O=C(CSC1=Nc2ccccc2C2=NC(CC(=O)N3CCN(c4ccccc4)CC3)C(=O)N12)NCC1CCCO1 (stereo unspecified),active: 50.1 µM,
COc1ccccc1CN1CCN(C(CC(C)C)c2nnnn2Cc2cccs2)CC1 (stereo unspecified),"inconclusive: 2.24 µM [inhibitor, partial curve, poor fit]",
O=C1/C(=N/n2cnnc2)c2ccccc2N1Cc1ccccc1,"inconclusive: 89.1 µM [inhibitor, single point]",
CCN(CCCNC(=O)C1CCN(S(=O)(=O)CC)CC1)c1cccc(C)c1,"inconclusive: 79.4 µM [inhibitor, partial curve, poor fit]",
CCOC(=O)c1cc(-c2ccc(OC)cc2)nn1-c1ccc(C(=O)O)cc1,"inconclusive: 11.2 µM [inhibitor, partial curve, poor fit]",
